{"source": "the supplement of paper PMC10681739", "note": "± gives the standard deviation of the averaged measurements. Over roughly 4,000 sequences, “arbitrary fluorescence units” has its median near 830; the highest 2% begin near 6,500. Most of the strongest results are missing from this list.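 Also: Full-length recombinant human RUNX1 bound to double-stranded DNA microarray spots, detected with an Alexa488-labelled secondary antibody after the anti-RUNX1 primary, read as scanned spot fluorescence.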"}
{"biological_target": "RUNX1 (UniProt Q01196)", "sequence (Q01196 whole entry)": "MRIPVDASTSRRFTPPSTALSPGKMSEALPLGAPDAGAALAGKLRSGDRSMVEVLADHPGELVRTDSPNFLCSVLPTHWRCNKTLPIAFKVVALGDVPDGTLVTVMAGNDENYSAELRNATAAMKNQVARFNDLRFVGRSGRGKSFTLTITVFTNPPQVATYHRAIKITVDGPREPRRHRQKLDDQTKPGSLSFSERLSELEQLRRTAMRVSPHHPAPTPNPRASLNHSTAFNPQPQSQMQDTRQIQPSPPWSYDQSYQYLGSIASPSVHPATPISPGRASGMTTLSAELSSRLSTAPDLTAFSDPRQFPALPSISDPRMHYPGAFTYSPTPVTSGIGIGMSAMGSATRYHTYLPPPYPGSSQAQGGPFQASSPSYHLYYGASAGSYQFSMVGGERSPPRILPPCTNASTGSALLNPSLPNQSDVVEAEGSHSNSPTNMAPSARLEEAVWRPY", "test": "RUNX1 binding intensity (PBM fluorescence), RUNX1 alone (arbitrary fluorescence units); higher = stronger binding", "details": "RUNX1 concentration 2 nM; ETS1 concentration 0 nM", "protocol": "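gcPBM on 36-bp genomic-derived probes (partner site mutated) containing one RUNX1 site and no ETS1 site. Recombinant human RUNX1 (2 nM) was incubated alone or with ETS1 (25 nM) and detected by anti-RUNX1 antibody fluorescence. Values are medians over 4 replicate spots (not normalised). The probes sit in constant array flanks that are not printed.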"}
{"sequence": "CCCTTTTTCCCCGCAAACAGCTTGCTCTGCTAAGAA", "RUNX1 binding intensity": 1480}
{"sequence": "CACTACCACAAATTATGCAGTGGAATCTCCTACATT", "RUNX1 binding intensity": "1040 ± 100"}
{"sequence": "AGGTGTACTTTACGGGTGCAGACCGCGAATGGATCG", "RUNX1 binding intensity": 722}
{"sequence": "CTCTCTCCACCACAGTCACTTATCGCTTGCTGGAGG", "RUNX1 binding intensity": 1070}
{"sequence": "ATAATAACCACAAGAGATCTGATCTCCGTTGCTGGT", "RUNX1 binding intensity": 3470}
{"sequence": "CCTGGGACACCGCGAAAGTCGGGAGATGGTGCGTGT", "RUNX1 binding intensity": 935}
{"sequence": "CTCCTGCCCACAGAAGCTCACTGTTTACTGTCTAGC", "RUNX1 binding intensity": 965}
{"sequence": "GCCACACCCCCTTCATGTTGTGTGTGGGGATTCATG", "RUNX1 binding intensity": 746}
{"sequence": "GGAGCGACGGGAGCACCTGAAGCGGTCTTTCCCCGA", "RUNX1 binding intensity": 688}
{"sequence": "CGGGAGGGGCAGGGAGCGGACTGCGGTGGGGAAGGG", "RUNX1 binding intensity": 970}
{"sequence": "AAGTGGGGTGAAGGCAGCTGTACACCGCGGAGTCAC", "RUNX1 binding intensity": 748}
{"sequence": "TTAACTCCACAGAAGAATAAACCACCACCGCTCACC", "RUNX1 binding intensity": 1060}
{"sequence": "TTCTGCGCCGCAGCCTCAGTCCCTTCTCAGGCTGGG", "RUNX1 binding intensity": 831}
{"sequence": "GCTTTTGCGCTCCCAGAGTGCCCCGCCCACAGTTCA", "RUNX1 binding intensity": 928}
{"sequence": "GCCGCCGCAGTCGCGGCCGGTCCCCTGGAACCGTCT", "RUNX1 binding intensity": 870}
{"sequence": "GTAACCCAGGCCACAAGTGGGGTGAAGGAGGCTGTA", "RUNX1 binding intensity": 913}
{"sequence": "CTGTGGTAGGGCAGCTCCTCAGAAGCCGTAAATCTG", "RUNX1 binding intensity": 714}
{"sequence": "GCGAAGTGTGTGGGCAACGCGGCCCGATCCTGGAGT", "RUNX1 binding intensity": 1170}
{"sequence": "ACATGAAACTAAAATAAGAACAGAAAACCAAGACAG", "RUNX1 binding intensity": 795}
{"sequence": "CTCGGGGACCACACCCTGCGCGCCGGGAGCAAGGGC", "RUNX1 binding intensity": 777}
{"sequence": "CCAGAATGCATGAAGTGCTGTGGTTTGACTTTGTTT", "RUNX1 binding intensity": 800}
{"sequence": "ACTACATGTCCCAGGAGGCTTCGCGGTGAGCCTCCG", "RUNX1 binding intensity": 739}
{"sequence": "GAGCCCGCGCATGTCAGGTGTGCCCACATCTAAACA", "RUNX1 binding intensity": 750}
{"sequence": "GGCGGGGCCTCCGTGTCCTTGCGGTGCTGGGCAGCA", "RUNX1 binding intensity": 688}
{"sequence": "ATACATACAGCATGACATTTGTCCTGTGGGCACCAG", "RUNX1 binding intensity": 698}
{"sequence": "CTGTCAGCATGTTGGCTTGTGAGCCCACAATCCTCT", "RUNX1 binding intensity": 706}
{"sequence": "TTGAAGCTCTCCCGCAGAAGCTACAGCCTCTGGAAA", "RUNX1 binding intensity": 789}
{"sequence": "AGGGACCCGTATGTCTGGTCTGCGGCTGCTCCTCTA", "RUNX1 binding intensity": 822}
{"sequence": "AGTCCCGCAGCCCTGCGACCAGCGGCCTGAAGCAGC", "RUNX1 binding intensity": 772}
{"sequence": "GCCAAGGCCTGCCGCCGAGTTGGTTTTTGGGTTGTT", "RUNX1 binding intensity": 850}
{"sequence": "TGAGGTGCTAAACCACCAAGCACTTGCTGCTGTTAG", "RUNX1 binding intensity": 744}
{"sequence": "GAGAGCCTGCGGCTGGCGTTTGAGGCGTATGGCAGT", "RUNX1 binding intensity": 689}
{"sequence": "GCCGGCTCCACTCCCGCAGTCACTTGCTGCGTCCCT", "RUNX1 binding intensity": 801}
{"sequence": "TTCTTACGGCAACTGCTGCTGAGGCTGCGGTGGCGG", "RUNX1 binding intensity": 642}
{"sequence": "CCCTGTGGTTCGCGGGCGAAGCGCCTCCTCTAGCTG", "RUNX1 binding intensity": 1260}
{"sequence": "GCCACACTCCCGGCGGGGCTGCGACCGCAGAGGGGC", "RUNX1 binding intensity": 1040}
{"sequence": "ACTGCCGTAAGAAAGCTGCCACCGCACGCAGTAGGG", "RUNX1 binding intensity": 743}
{"sequence": "AAAGAGAAAGGAGACAAAGTATAGCACCACAGTGAG", "RUNX1 binding intensity": 751}
{"sequence": "TTGTCTGCATGCTGTGCTGTGTGGTAGCTCTGGGTT", "RUNX1 binding intensity": 644}
{"sequence": "TTTGCGGGCGGGCGGCGGCGAAGGCGATCGGGCCCG", "RUNX1 binding intensity": 968}
{"sequence": "GCCTTTCTGGAGCCACAAAGACAGAAAGAGAGCGTC", "RUNX1 binding intensity": 791}
{"sequence": "CCATCCAGCAAGCTTATGGTGCAACCGCAGTGTGCC", "RUNX1 binding intensity": 928}
{"sequence": "TCAAAACCTGACCACAGTATTTCGTGTAGTTTCTAT", "RUNX1 binding intensity": 1270}
{"sequence": "AAATTTACCACATCAACAAAACGGGACACTGGAACC", "RUNX1 binding intensity": 1330}
{"sequence": "AGAACAGGGTGTTCTGAGTACAGCATGAACCTCAAA", "RUNX1 binding intensity": 723}
{"sequence": "TGTTGGACCACAGGCAATTGCCTGTTCAGAAAGAGA", "RUNX1 binding intensity": 778}
{"sequence": "CTCCATTATTCCAGCCAGGTGCCCTTGTGGGATAAG", "RUNX1 binding intensity": 819}
{"sequence": "AATCTGAAACAGGCAATAAGTCTGTGGTTGTGTGTT", "RUNX1 binding intensity": 702}
{"sequence": "GGGCTGGGGCCGCAGCGGGGCTTACGGCCCCCCAGG", "RUNX1 binding intensity": 678}
{"sequence": "CGGGGCGAAACCACTGTTGGCTCATTTACGGGTGGG", "RUNX1 binding intensity": 873}
{"sequence": "ACGCCTGTGGTCCCAGCTACTCAGCAAGCTGAGGTG", "RUNX1 binding intensity": 831}
{"sequence": "GTGTGTGGGTGGGGAGAGCTGCAGCCACAGTAAACG", "RUNX1 binding intensity": 790}
{"sequence": "AGTGGGTGGTTTTCAGCCCTTATCTTGCTGGACCAT", "RUNX1 binding intensity": 788}
{"sequence": "GGCCGAAGCTGCCGCTGCCTTGCGCCCCCACACACG", "RUNX1 binding intensity": 870}
{"sequence": "CATCAGTTTGTGGCTGCCGAGTGCTTGCTGGGAATT", "RUNX1 binding intensity": 799}
{"sequence": "CCTGTCCTGACCGCGGCGAATAACATTGCCTACAGC", "RUNX1 binding intensity": 1190}
{"sequence": "AAAGTATCTTCTGTGGTGAATCGGAGACAAAACTCA", "RUNX1 binding intensity": 827}
{"sequence": "CTTTGCAGCAAGCTGGGGTTCACCCACAGCCTTGTT", "RUNX1 binding intensity": 789}
{"sequence": "AGGTTCCTGCGGTGGCCGCGTGCTGGTTCCATTAGC", "RUNX1 binding intensity": 884}
{"sequence": "CTGTGGTGACCCGGCAGGAGTAGCGTCGGGAGCAAT", "RUNX1 binding intensity": 709}
{"sequence": "TGGGGCTAGGCTTACGGGGCTCTGCGGTCCTCGGCC", "RUNX1 binding intensity": 742}
{"sequence": "GGTCTGTGGCCCTGGGCACCTCCATACGCCGCGGCG", "RUNX1 binding intensity": 763}
